Reference: the supplement of paper PMC4604168 (melanoma cell lines)
Some of the results follow. Repeats are few or missing, and single values can be far off.

How the values were obtained:
Experiment in all cases: cell count relative to DMSO control; melanoma cells; higher = more viable cells
Details in all cases: library dose: low library concentration; 72 h
[1] = tested on: WM115
[2] = tested on: WM1716
[3] = tested on: WM1745
[4] = tested on: WM3526
[5] = tested on: WM3619
[6] = tested on: WM451Lu
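Also: cell number obtained by counting DAPI-stained nuclei in high-throughput microscope images with image analysis software, screen run in 1,536-well plates.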

Row | SMILES | cell count [1] | cell count [2] | cell count [3] | cell count [4] | cell count [5] | cell count [6]
1 | Cc1cc(Nc2cc(N3CCN(C)CC3)nc(Sc3ccc(NC(=O)C4CC4)cc3)n2)n[nH]1 [Tozasertib] + Cc1cc([N+](=O)[O-])ccc1NS(=O)(=O)c1cc(Cl)ccc1Cl [FH535] (first compound 0.006 µM, partner dose 1 µM) | 82.2% | 77.7% | 80.6% | 80.6% | 114% | 102%
2 | CC[C@]1(O)C[C@H]2CN(CCc3c([nH]c4ccccc34)[C@@](C(=O)OC)(c3cc4c(cc3OC)N(C=O)[C@H]3[C@@](O)(C(=O)OC)[C@H](OC(C)=O)[C@]5(CC)C=CCN6CC[C@]43[C@@H]65)C2)C1 [vincristine] + CCc1ccc(CCOc2ccc(CC3SC(=O)NC3=O)cc2)nc1 [pioglitazone] (first compound 0.0001 µM, partner dose 2 µM) | 53.9% | 35.5% | 76.3% | 67.3% | 58.5% | 46.5%
3 | CC[C@]1(O)C[C@H]2CN(CCc3c([nH]c4ccccc34)[C@@](C(=O)OC)(c3cc4c(cc3OC)N(C=O)[C@H]3[C@@](O)(C(=O)OC)[C@H](OC(C)=O)[C@]5(CC)C=CCN6CC[C@]43[C@@H]65)C2)C1 [vincristine] + C=CCNC1=C2C[C@@H](C)C[C@H](OC)[C@H](O)[C@@H](C)/C=C(\C)[C@H](OC(N)=O)[C@@H](OC)/C=C\C=C(/C)C(=O)NC(=CC1=O)C2=O [Tanespimycin] (first compound 0.0001 µM, partner dose 0.002 µM) | 59.4% | 46.6% | 89.9% | 65.3% | 42.7% | 52.6%
4 | N#CC[C@H](C1CCCC1)n1cc(-c2ncnc3[nH]ccc23)cn1 [ruxolitinib] + CCCCCCCCCCCC1=C(O)C(=O)C=C(O)C1=O [Embelin] (first compound 1 µM, partner dose 1.2 µM) | 105% | 119% | 87% | 104% | 101% | 83.8%
5 | CC[C@]1(O)C[C@H]2CN(CCc3c([nH]c4ccccc34)[C@@](C(=O)OC)(c3cc4c(cc3OC)N(C=O)[C@H]3[C@@](O)(C(=O)OC)[C@H](OC(C)=O)[C@]5(CC)C=CCN6CC[C@]43[C@@H]65)C2)C1 [vincristine] + Cn1c(Nc2ccc(C(F)(F)F)cc2)nc2cc(Oc3ccnc(-c4ncc(C(F)(F)F)[nH]4)c3)ccc21 [CHIR265] (first compound 0.0001 µM, partner dose 0.08 µM) | 33% | 49.3% | 59.6% | 38.9% | 62.8% | 67.6%
6 | Cc1cc(Nc2cc(N3CCN(C)CC3)nc(Sc3ccc(NC(=O)C4CC4)cc3)n2)n[nH]1 [Tozasertib] + Cn1cc(/C=C2\C(=O)Nc3cccnc32)c2ccccc21 [GW441756] (first compound 0.006 µM, partner dose 0.4 µM) | 89.9% | 109% | 98.3% | 94.2% | 90.5% | 93.6%
7 | CC[C@]1(O)C[C@H]2CN(CCc3c([nH]c4ccccc34)[C@@](C(=O)OC)(c3cc4c(cc3OC)N(C=O)[C@H]3[C@@](O)(C(=O)OC)[C@H](OC(C)=O)[C@]5(CC)C=CCN6CC[C@]43[C@@H]65)C2)C1 [vincristine] + Cc1nc(Nc2ncc(C(=O)Nc3c(C)cccc3Cl)s2)cc(N2CCN(CCO)CC2)n1 [dasatanib] (first compound 0.0001 µM, partner dose 0.004 µM) | 37% | 35.9% | 60.4% | 68.7% | 47.1% | 68.8%
8 | Cc1cc(Nc2cc(N3CCN(C)CC3)nc(Sc3ccc(NC(=O)C4CC4)cc3)n2)n[nH]1 [Tozasertib] + O=C(Nc1cccc(Cl)c1)Nc1ncc(CCNc2ncnc3ccsc23)s1 [SNS314] (first compound 0.006 µM, partner dose 0.0008 µM) | 75.5% | 100% | 78% | 87.4% | 114% | 100%
9 | CC[C@]1(O)C[C@H]2CN(CCc3c([nH]c4ccccc34)[C@@](C(=O)OC)(c3cc4c(cc3OC)N(C=O)[C@H]3[C@@](O)(C(=O)OC)[C@H](OC(C)=O)[C@]5(CC)C=CCN6CC[C@]43[C@@H]65)C2)C1 [vincristine] + NCC(=O)Nc1ccc(-n2nc(C(F)(F)F)cc2-c2ccc3c(ccc4ccccc43)c2)cc1 [OSU03012] (first compound 0.0001 µM, partner dose 1 µM) | 58.8% | 0.534% | 92.9% | 44.1% | 108% | 45.7%
10 | CC[C@]1(O)C[C@H]2CN(CCc3c([nH]c4ccccc34)[C@@](C(=O)OC)(c3cc4c(cc3OC)N(C=O)[C@H]3[C@@](O)(C(=O)OC)[C@H](OC(C)=O)[C@]5(CC)C=CCN6CC[C@]43[C@@H]65)C2)C1 [vincristine] + C[C@]1(O)C[C@@H](c2nc(-c3ccc4ccc(-c5ccccc5)nc4c3)c3c(N)nccn32)C1 [OSI906] (first compound 0.0001 µM, partner dose 0.4 µM) | 90.8% | 66.2% | 76% | 93.6% | 97.6% | 89.2%
11 | N#CC[C@H](C1CCCC1)n1cc(-c2ncnc3[nH]ccc23)cn1 [ruxolitinib] + CCCS(=O)(=O)Nc1ccc(F)c(C(=O)c2c[nH]c3ncc(Cl)cc23)c1F [PLX4720] (first compound 1 µM, partner dose 0.08 µM) | 102% | 104% | 114% | 85.7% | 92.6% | 89.1%
12 | N#CC[C@H](C1CCCC1)n1cc(-c2ncnc3[nH]ccc23)cn1 [ruxolitinib] + Cc1ccc(Nc2nccc(N(C)c3ccc4c(C)n(C)nc4c3)n2)cc1S(N)(=O)=O [Pazopanib] (first compound 1 µM, partner dose 0.4 µM) | 113% | 88.5% | 74.4% | 103% | 116% | 93.4%
13 | CC[C@]1(O)C[C@H]2CN(CCc3c([nH]c4ccccc34)[C@@](C(=O)OC)(c3cc4c(cc3OC)N(C=O)[C@H]3[C@@](O)(C(=O)OC)[C@H](OC(C)=O)[C@]5(CC)C=CCN6CC[C@]43[C@@H]65)C2)C1 [vincristine] + O=c1cc(-c2cccc3c2Sc2ccccc2S3)oc(N2CCOCC2)c1 [KU55933] (first compound 0.0001 µM, partner dose 1 µM) | 45.5% | 34.5% | 78.5% | 72.2% | 53.6% | 46.6%
14 | Cc1cc(Nc2cc(N3CCN(C)CC3)nc(Sc3ccc(NC(=O)C4CC4)cc3)n2)n[nH]1 [Tozasertib] + Cc1ccc(NC(=O)c2cccc(N(C)C)c2)cc1NC(=O)c1ccc(O)cc1 [ZM336372] (first compound 0.006 µM, partner dose 2 µM) | 96.9% | 93.6% | 78.9% | 101% | 97% | 117%
15 | Cc1cc(Nc2cc(N3CCN(C)CC3)nc(Sc3ccc(NC(=O)C4CC4)cc3)n2)n[nH]1 [Tozasertib] + CCN(CC)CCNC(=O)c1c(C)[nH]c(/C=C2\C(=O)Nc3ccc(F)cc32)c1C [sunitinib] (first compound 0.006 µM, partner dose 0.4 µM) | 104% | 105% | 73.4% | 96.4% | 113% | 96.8%
16 | Cc1cc(Nc2cc(N3CCN(C)CC3)nc(Sc3ccc(NC(=O)C4CC4)cc3)n2)n[nH]1 [Tozasertib] + NC(=O)c1ccc(N(C(N)=O)c2c(F)cccc2F)nc1-c1ccc(F)cc1F [VX702] (first compound 0.006 µM, partner dose 0.4 µM) | 82.6% | 94.3% | 80.4% | 82.9% | 90.4% | 101%
17 | Cc1cc(Nc2cc(N3CCN(C)CC3)nc(Sc3ccc(NC(=O)C4CC4)cc3)n2)n[nH]1 [Tozasertib] + OCc1c[nH]c2ccccc12 [Indole-3-carbinol] (first compound 0.006 µM, partner dose 0.8 µM) | 88% | 94.2% | 89.2% | 110% | 84.6% | 96.1%
18 | N#CC[C@H](C1CCCC1)n1cc(-c2ncnc3[nH]ccc23)cn1 [ruxolitinib] + CC(C)CCN1c2nc(Nc3cc(F)c(O)c(F)c3)ncc2N(C)C(=O)C1C [BID1870] (first compound 1 µM, partner dose 0.2 µM) | 108% | 108% | 107% | 102% | 90% | 106%
19 | Cc1cc(Nc2cc(N3CCN(C)CC3)nc(Sc3ccc(NC(=O)C4CC4)cc3)n2)n[nH]1 [Tozasertib] + COc1ccc(-c2ccc3c(N4CCOCC4)nc(N4C[C@@H](C)O[C@@H](C)C4)nc3n2)cc1CO [KU0063794] (first compound 0.006 µM, partner dose 0.02 µM) | 77.5% | 86.7% | 91.5% | 83.4% | 109% | 93.4%
